Measurements taken from article PMC5302899.
Results are given in words; binding and its absence hold for the method and conditions named. In cells and extracts the contact can be indirect. Some results given as binding are weak or reduced against the parent protein; the word gives no strength.

By UniProt entry, the sequences of proteins in these tests, tags left out.
UniProt P23771: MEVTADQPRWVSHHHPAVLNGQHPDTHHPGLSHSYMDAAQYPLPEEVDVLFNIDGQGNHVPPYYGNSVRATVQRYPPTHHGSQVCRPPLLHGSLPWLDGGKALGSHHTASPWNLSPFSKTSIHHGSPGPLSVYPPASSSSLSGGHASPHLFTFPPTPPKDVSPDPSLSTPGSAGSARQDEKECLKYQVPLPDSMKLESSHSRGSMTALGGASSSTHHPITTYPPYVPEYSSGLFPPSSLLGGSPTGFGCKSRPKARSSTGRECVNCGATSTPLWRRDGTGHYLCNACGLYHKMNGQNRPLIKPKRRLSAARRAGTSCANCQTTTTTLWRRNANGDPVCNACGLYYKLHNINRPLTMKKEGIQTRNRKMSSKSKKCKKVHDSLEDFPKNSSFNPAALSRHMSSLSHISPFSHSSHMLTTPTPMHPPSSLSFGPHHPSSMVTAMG
UniProt P03146: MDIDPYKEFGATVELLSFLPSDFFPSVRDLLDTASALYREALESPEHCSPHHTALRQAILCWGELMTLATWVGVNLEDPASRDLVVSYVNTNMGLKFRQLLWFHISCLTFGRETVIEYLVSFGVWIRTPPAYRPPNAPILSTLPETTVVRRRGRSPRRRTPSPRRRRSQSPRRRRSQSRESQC
UniProt P03165: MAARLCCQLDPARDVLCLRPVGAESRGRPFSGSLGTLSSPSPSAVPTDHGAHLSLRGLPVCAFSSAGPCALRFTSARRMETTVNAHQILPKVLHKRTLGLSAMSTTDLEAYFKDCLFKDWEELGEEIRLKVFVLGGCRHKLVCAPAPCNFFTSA
UniProt P23769: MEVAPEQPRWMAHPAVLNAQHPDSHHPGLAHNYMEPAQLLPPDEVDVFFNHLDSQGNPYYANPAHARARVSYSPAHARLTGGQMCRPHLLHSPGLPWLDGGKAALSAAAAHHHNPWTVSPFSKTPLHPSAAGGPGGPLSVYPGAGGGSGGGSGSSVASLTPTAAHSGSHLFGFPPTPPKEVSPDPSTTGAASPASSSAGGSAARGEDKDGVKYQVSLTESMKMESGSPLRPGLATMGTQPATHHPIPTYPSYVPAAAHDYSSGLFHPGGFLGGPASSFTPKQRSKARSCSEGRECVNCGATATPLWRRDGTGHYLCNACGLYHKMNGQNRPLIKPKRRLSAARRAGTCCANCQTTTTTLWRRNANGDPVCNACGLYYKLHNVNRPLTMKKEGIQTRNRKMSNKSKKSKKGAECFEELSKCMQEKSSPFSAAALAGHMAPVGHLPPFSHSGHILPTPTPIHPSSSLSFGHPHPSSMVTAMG

Columns and labels:
Assay in all cases: co-IP; HepG2.2.15 cell lysates (25 mM Tris, 150 mM NaCl, 1 mM EDTA, 1 mM EGTA, 20 mM sodium molybdate, 0.5% Nonidet P-40), antibody on protein A beads, 4°C overnight; Western blot of the precipitates
[1] = biological target: GATA-3 (human (endogenous in HepG2.2.15)) (UniProt P23771)
[2] = biological target: HBV core protein (hepatitis B virus, serotype ayw (in HepG2.2.15 cells)) (UniProt P03146)
[3] = biological target: HBx protein (hepatitis B virus, serotype ayw (in HepG2.2.15 cells)) (UniProt P03165)
[4] = biological target: GATA-2 (human (endogenous in HepG2.2.15)) (UniProt P23769)

GATA-2 (from UniProt P23769 1-480) was tested, and the binding [1] was “binds”, the binding [2] was “no binding” and the binding [3] was “binds”.
With GATA-3 (from UniProt P23771 1-443) the binding [4] was “binds”, the binding [2] was “no binding” and the binding [3] was “binds”.
In the case of HBx protein (from UniProt P03165 1-154), the binding [4] is reported as “binds” and the binding [1] is reported as “binds”.
